# In PubChem BioAssay AID1508642 (National Center for Advancing Translational Sciences (NCATS), 2021):
# Out of some 43,000 compounds screened, about 200 (0.47%) were called active. About 12% were inconclusive and are not listed. Calls come from the whole dose curve; as a rule, active = well fitted cell-killing curve with a large enough effect; inconclusive = small, poorly fitted or top-dose-only effect, or effect the other way; inactive = flat fitted curve, though single readings scatter. The list shows a part of the results.
# Experiment: Cell viability qHTS assay in S16 Pmp22-F2sN cells; note: nearly all actives have a fitted effect of over 65% in size
# Conditions: S16 Pmp22-F2sN Schwann cells viability, CellTiter-Glo, 24 h; series mostly up to 57.5 µM; activity change, negative = cytotoxicity: at the top concentration
# In short: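 Viability was measured by CellTiter-Glo luminescence (15 min, room temperature). This followed 24 h at 37 °C of compound exposure (23 nL pin transfer) in S16 Pmp22-F2sN Schwann cells, 500-1,000 per well.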
# % is set by controls: 0 for no effect and ±100 for the full control effect.
row,SMILES,"activity change, negative = cytotoxicity"
1,CC(=O)Nc1ccc(S(=O)(=O)Nc2ccc(-c3cn4c(C)csc4n3)cc2)cc1,inactive: 5.07%
2,COC(=O)c1cc(S(=O)(=O)N2CCN(c3cccc(C)c3)C(C)C2)c[nH]1 (centres undefined),inactive: 26.3%
3,COc1ccccc1-c1cc(C(F)(F)F)nc(S(=O)(=O)CCCC(=O)Nc2cc(C)ccc2O)n1,inactive: 17.4%
4,COc1cccc(-n2c(=O)c3sc4ccccc4c3n(CC(=O)Nc3ccccc3OC)c2=O)c1,inactive: 19.7%
5,Cc1ccc(-n2nc(CO)c(C(=O)NCCc3ccccc3)n2)cc1,inactive: 8.02%
6,Cc1ccc(Cl)cc1N1CCN(C(=O)Cn2ncc3c([nH]c4ccccc43)c2=O)CC1,inactive: 2.13%
7,CCC(Sc1nc2ccncc2[nH]1)C(=O)Nc1ccc(F)cc1 (centres undefined),inactive: -2.33%
8,CCOC(=O)N1CCN(C(=O)c2ccc3c(c2)N(Cc2cc(C)ccc2C)C(=O)c2ccccc2S3=O)CC1 (centres undefined),inactive: -0.858%
9,Cc1cc(C)cc(NC(=O)C(NS(=O)(=O)c2cccc3nsnc23)c2ccccc2)c1 (centres undefined),inactive: -3.12%
10,Cc1ccc(Cn2cnc3c(oc4ccccc43)c2=O)cc1,inactive: 6.76%
11,O=C(CSc1nnc(-c2ccc(Cl)cc2)o1)N1CCc2ccccc21,inactive: 3.4%
12,O=C1CS(=O)(=O)C2(C(=O)N(Cc3ccc(F)cc3)c3ccccc32)N1c1cccc(C(F)(F)F)c1 (centres undefined),inactive: -3.05%
13,Cc1ccc2oc(C(=O)Nc3ccc(S(=O)(=O)Nc4onc(C)c4C)cc3)cc(=O)c2c1,inactive: 5.75%
14,Cc1ccc(NC(=O)CCCn2c3ccccc3c(=O)c3cc(C)ccc32)c(Br)c1,inactive: -2.91%
15,O=C1c2[nH]nc(-c3ccccc3)c2C(c2ccccc2)N1c1cccc(C(F)(F)F)c1 (centres undefined),inactive: 3.72%
16,O=C1SC(Nc2ccc(Cl)cc2)C(=O)N1Cc1ccccc1 (centres undefined),inactive: 8.5%
17,CCCCNC(=O)C1=CC(c2ccc3c(c2)OCO3)=NS(=O)(=O)N1C,inactive: 5.38%
18,O=C(CSc1ncc(S(=O)(=O)c2ccc(Cl)cc2)c(=O)[nH]1)Nc1ccc2c(c1)OCCO2,inactive: 4.42%
19,COc1cccc(C(=O)NCC(=O)OCc2cc(=O)n3nc(C)sc3n2)c1,inactive: -15.8%
20,CCCC(=O)Nc1nnc(SCc2cc(=O)c3ccc(C)cc3[nH]2)s1,inactive: -22.2%
21,COC(=O)c1ccc(Cn2nnc3sc4c(c3c2=O)CCC(C)C4)cc1 (centres undefined),inactive: -0.668%
22,CCc1ccccc1N(C)C(=O)Cn1cnc2sc(C)c(S(=O)(=O)N3CCN(c4ncccn4)CC3)c2c1=O,inactive: 16.6%
23,COc1ccc(NC(=O)Cn2c(=O)oc3cc(S(=O)(=O)N4CCC(C)CC4)ccc32)c(OC)c1,inactive: -15.1%
24,Cc1ccc(Cl)cc1NC(=O)C1CCC(CNS(=O)(=O)c2cccc3nsnc23)CC1 (centres undefined),inactive: 4.6%

row,SMILES,"activity change, negative = cytotoxicity"
1,CCc1ccc2c(c1)NC(c1cccs1)=NC(c1ccc(F)cc1)=N2,inactive: 19.9%
2,O=C(CCCN1C(=O)C(c2ccccc2)Oc2cccnc21)Nc1ccc(Br)cc1F (centres undefined),inactive: 2.61%
3,COc1ccc2c(CNCCc3cccs3)c(C(=O)O)n(Cc3ccccc3)c2c1,inactive: 7.93%
4,CCOc1ccc(CCNC(=O)c2cc3c(=O)[nH]c4ccc(C)cc4c3s2)cc1OCC,inactive: 6.97%
5,COc1ccc(-c2nc(SCC(=O)NCCc3ccc(OC)c(OC)c3)n[nH]2)cc1,inactive: 0.048%
6,O=C(NC1CCCc2ccccc21)c1ccc2c(c1)sc1nc(-c3ccc(F)cc3)cn12 (centres undefined),inactive: -1.66%
7,COc1cccc(N2CCN(C(=O)c3c(C)oc4ncnc(N5CCOCC5)c34)CC2)c1,inactive: 1.07%
8,Cc1c(C(=O)N(C)C)sc2c1c(=O)n(-c1ccc(Cl)c(Cl)c1)c(=O)n2CC(=O)Nc1cccc(C(F)(F)F)c1,inactive: 1.55%
9,CC(C)c1ccc(NC(=O)CN(C)S(=O)(=O)c2ccc3c(c2)c(=O)n(C)c(=O)n3C)cc1,inactive: -11.5%
10,CCn1c(=O)n(CC)c2cc(N3CCCCC3)c(NC(=O)Nc3ccccc3Cl)cc21,inactive: -5.41%
11,COc1cccc(Oc2nc3c(c(=O)n(Cc4ccccc4F)c(=O)n3C)n2C)c1,inactive: -8.84%
12,CCOC(=O)Cc1ccc(NC(=O)NCc2ccc3c(c2)CCN3C(=O)CC)cc1,inactive: 20.2%
13,O=C(CCS(=O)(=O)c1cc(Br)cc2c1N(C(=O)C1CC1)CC2)Nc1ccc(Br)cc1F,inactive: -1.43%
14,CCOC(=O)c1oc2c(c1C)-c1nn(Cc3ccc(Cl)cc3)cc1CC2,inactive: -8.75%
15,Cc1noc(C)c1S(=O)(=O)N1CCC(C(=O)N2CCN(c3ccccc3)CC2)CC1,inactive: 9.88%
16,O=C(CSc1nc2c([nH]c3ccccc32)c(=O)n1-c1ccc(F)cc1)N1CCCCC1,inactive: 1.16%
17,CCc1ccc(OCC(=O)N(Cc2ccc(Cl)cc2)C2CCS(=O)(=O)C2)cc1 (centres undefined),inactive: -2.07%
18,COc1ccccc1NC(=O)Cn1nnc(C(=O)NCc2ccc3c(c2)OCO3)c1N,inactive: 0.269%
19,CCC(C)NC(=O)Cn1c(=O)cc(-c2ccccc2)c2c(C)nn(C)c21 (centres undefined),inactive: 3.33%
20,CCOc1ccc(C(CC(=O)O)N2Cc3ccccc3C2=O)cc1OC (centres undefined),inactive: 3.63%
21,COc1ccc(C2c3c(oc4ccc(F)cc4c3=O)C(=O)N2Cc2ccc3c(c2)OCO3)cc1 (centres undefined),inactive: -1.2%
22,Cc1ccc(N2CC(c3nc4ccccc4n3CCC3CCCCC3)CC2=O)cc1 (centres undefined),inactive: -0.0304%
23,COc1cccc(N2CCN(S(=O)(=O)c3ccc4[nH]c5c(c4c3)CCCC5)CC2)c1,inactive: -17%
24,O=C(Nc1ccccc1Br)C1CCCN(S(=O)(=O)c2cccc3nsnc23)C1 (centres undefined),inactive: -19.4%

row,SMILES,"activity change, negative = cytotoxicity"
1,CCOC(=O)c1cccc(Nc2c3c(nc4ccccc24)CCC3)c1,inactive: -29.2%
2,O=C1CC(c2ccccc2)Cc2[nH]c(=O)c(C(=O)Nc3cccc(F)c3)cc21 (centres undefined),inactive: 0.0593%
3,O=C(NCCS(=O)(=O)N1CCN(c2ccccc2)CC1)C(c1ccccc1)c1ccccc1,inactive: -0.661%
4,N#C/C(=C\c1ccccc1)c1nc(-c2cc3cc(Br)ccc3oc2=O)cs1,inactive: 2.85%
5,Cc1cccc(N(C)C(=O)c2cc(S(=O)(=O)N3CCCC3)cn2C)c1,inactive: -3.11%
6,CCc1ccc(CNCc2c(C(=O)O)n(Cc3cccc(F)c3)c3cc(OC)ccc23)cc1,inactive: -15%
7,COC(=O)c1ccccc1NC(=O)NCCc1c(C)nn(C)c1C,inactive: -2.87%
8,CC1CCN(C(=O)CSc2nnc(-c3ccccc3Cl)o2)CC1,inactive: 3.36%
9,COc1ccc(NC(=O)/C(C#N)=C/c2ccc(OCc3cc(=O)n4nc(C)sc4n3)cc2)cc1,inactive: 20%
10,CCN(C(=O)Cn1nc(Cc2cccnc2)c2ccccc2c1=O)c1ccccc1F,inactive: 26.3%
11,O=C(NCCc1csc(-c2ccc(Cl)cc2)n1)c1cccs1,inactive: -26.7%
12,CCc1ccccc1NC(=O)Cn1c(-c2nonc2N)nc2ccccc21,inactive: 0.893%
13,COC(=O)c1c(NC(=O)CCCOc2ccc(C(C)(C)C)cc2)sc2c1CCC(C)C2 (centres undefined),inactive: -16.3%
14,COc1ccc(NC(=O)CCNS(=O)(=O)c2cccc3nsnc23)cc1,inactive: 0.514%
15,Cc1ccc2nc(-c3cc(NC(=O)c4ccc5c(c4)OCCO5)ccc3Cl)oc2c1,inactive: -0.347%
16,Cc1cccc(NC(=O)C2CCN(c3nnc(-n4c(C)ccc4C)s3)CC2)c1C,inactive: -8.06%
17,COc1ccc(-c2nnc(C3CCN(C(=O)c4ccccc4F)CC3)o2)cc1,inactive: -5.03%
18,Cc1ccc(S(=O)(=O)NCCc2cn3c(C)csc3n2)cc1,inactive: 4.99%
19,COc1ccc(OCCn2cc(C(=O)C3CCCCC3)c3ccccc32)cc1,inactive: 0.0651%
20,O=C(c1ccc2c(c1)CCN2S(=O)(=O)c1ccccc1)N1CCN(c2ccc(F)cc2)CC1,inactive: 5.15%
21,COc1cccc(N2CCN(C(=O)c3cnn(C(C)(C)C)c3C3CCN(C(=O)OC(C)(C)C)CC3)CC2)c1,inactive: 0.532%
22,CCc1cccc(NC(=O)Cn2c(=O)n(Cc3ccccc3)c(=O)c3c2c2cc(OC)ccc2n3C)c1,inactive: 25.9%
23,O=C(NCc1ccc(Cl)cc1)C(=O)Nc1ccc(Br)cc1,inactive: -0.94%
24,Cc1cc(C)c(Cn2c3ccccc3c3cnn(CC(=O)N4CCCCCC4)c(=O)c32)c(C)c1,inactive: 2.67%

row,SMILES,"activity change, negative = cytotoxicity"
1,Cc1cccc(C)c1OCC(=O)Nc1nc(-c2ccc(Br)cc2)ns1,inactive: 2.3%
2,Cn1cc(S(=O)(=O)c2ccccc2)c(=O)c2cc(F)c(N3CCN(c4ccccc4)CC3)cc21,inactive: -7.14%
3,Cc1cccc(-n2c(-c3ccccc3)cn3c4c(=O)[nH]c(=O)n(C)c4nc23)c1,inactive: 12.7%
4,Cc1ccc(-c2cc(C(F)(F)F)n3nc(C(=O)Nc4ccc(Cl)c(C(F)(F)F)c4)cc3n2)cc1,inactive: 1.36%
5,O=S1(=O)c2ccccc2N(Cc2ccccc2)c2ccccc21,inactive: -8.44%
6,CCN(CC)CCCNC(=O)C1CCN(S(=O)(=O)CC)CC1,inactive: 1.09%
7,COC(=O)c1cc(C)nc2c1c(=O)nc(SCc1ccccc1F)n2C1CC1,inactive: -2.27%
8,O=C(Cn1c(=O)n(-c2cccc(Cl)c2)c(=O)c2sc3ccccc3c21)N1CCCC1,inactive: 4.48%
9,CCOc1ccc(C(=O)Nc2c(C(=O)Nc3ccccc3F)oc3ccccc23)cc1OCC,inactive: 10.1%
10,CCn1c(=O)c2cc(C(=O)NCCc3cc(OC)ccc3OC)sc2c2ccccc21,inactive: 23.9%
11,CCCCN(CC)CCNC(=O)c1cc2c(=O)oc3ccc(C)cc3c2s1,inactive: -5.11%
12,Cc1ccc(-n2c(C)nc3c(cnn3-c3ccccc3C)c2=O)cc1F,inactive: 20.9%
13,CCc1ccc2oc(-c3ccc(NC(=O)c4ccc(OC)c(Br)c4)cc3)nc2c1,inactive: 2.72%
14,Cc1cccc(Cn2cc(C(=O)Nc3ccc(F)c(C(F)(F)F)c3)ccc2=O)c1,inactive: -14.1%
15,O=C(NCc1cccc(F)c1)c1ccc(-n2cnc3cccnc32)cc1,inactive: -5.93%
16,COc1ccccc1CNC(=O)CCC1N=C2c3ccccc3N=C(SCc3cccc(Cl)c3)N2C1=O (centres undefined),inactive: -13.3%
17,COc1ccccc1CNC(=O)CCCc1nnc2n(CC(C)C)c(=O)c3sccc3n12,inactive: 18.6%
18,CC(C)N(C(=O)CSc1nc2ccc(Cl)cc2[nH]1)c1ccccc1,inactive: -7.82%
19,CCOc1ccc(OCC)c(NS(=O)(=O)c2cc(Br)cc3c2N(C(C)=O)C(C)C3)c1 (centres undefined),inactive: -0.535%
20,COc1ccc(-c2cc3nc(-c4ccc(C)cc4)cc(C(F)(F)F)n3n2)cc1,inactive: 3.15%
21,O=C(c1ccc(F)cc1)N1c2nc(-c3ccco3)nn2C2(CCCCC2)[C@@H]2CCCC[C@@H]21,inactive: 1.4%
22,CCC(=O)Nc1nnc(SCc2cc(=O)c3cc(C)ccc3[nH]2)s1,inactive: -24.6%
